Reference: article PMC4336329 (PLoS ONE, 2015)
In all, about 310,000 compounds went through this assay and about 2,200 (0.71%) showed an effect of 50% or more. The effect is printed as a negative number. The list shows a part of the results.

molecular target: human ether-à-go-go-related gene (hERG) potassium channel (human, UniProt Q12809); assay: primary screen, population patch clamp on CHO cells stably expressing hERG
Sequence (Q12809 whole entry, looked up): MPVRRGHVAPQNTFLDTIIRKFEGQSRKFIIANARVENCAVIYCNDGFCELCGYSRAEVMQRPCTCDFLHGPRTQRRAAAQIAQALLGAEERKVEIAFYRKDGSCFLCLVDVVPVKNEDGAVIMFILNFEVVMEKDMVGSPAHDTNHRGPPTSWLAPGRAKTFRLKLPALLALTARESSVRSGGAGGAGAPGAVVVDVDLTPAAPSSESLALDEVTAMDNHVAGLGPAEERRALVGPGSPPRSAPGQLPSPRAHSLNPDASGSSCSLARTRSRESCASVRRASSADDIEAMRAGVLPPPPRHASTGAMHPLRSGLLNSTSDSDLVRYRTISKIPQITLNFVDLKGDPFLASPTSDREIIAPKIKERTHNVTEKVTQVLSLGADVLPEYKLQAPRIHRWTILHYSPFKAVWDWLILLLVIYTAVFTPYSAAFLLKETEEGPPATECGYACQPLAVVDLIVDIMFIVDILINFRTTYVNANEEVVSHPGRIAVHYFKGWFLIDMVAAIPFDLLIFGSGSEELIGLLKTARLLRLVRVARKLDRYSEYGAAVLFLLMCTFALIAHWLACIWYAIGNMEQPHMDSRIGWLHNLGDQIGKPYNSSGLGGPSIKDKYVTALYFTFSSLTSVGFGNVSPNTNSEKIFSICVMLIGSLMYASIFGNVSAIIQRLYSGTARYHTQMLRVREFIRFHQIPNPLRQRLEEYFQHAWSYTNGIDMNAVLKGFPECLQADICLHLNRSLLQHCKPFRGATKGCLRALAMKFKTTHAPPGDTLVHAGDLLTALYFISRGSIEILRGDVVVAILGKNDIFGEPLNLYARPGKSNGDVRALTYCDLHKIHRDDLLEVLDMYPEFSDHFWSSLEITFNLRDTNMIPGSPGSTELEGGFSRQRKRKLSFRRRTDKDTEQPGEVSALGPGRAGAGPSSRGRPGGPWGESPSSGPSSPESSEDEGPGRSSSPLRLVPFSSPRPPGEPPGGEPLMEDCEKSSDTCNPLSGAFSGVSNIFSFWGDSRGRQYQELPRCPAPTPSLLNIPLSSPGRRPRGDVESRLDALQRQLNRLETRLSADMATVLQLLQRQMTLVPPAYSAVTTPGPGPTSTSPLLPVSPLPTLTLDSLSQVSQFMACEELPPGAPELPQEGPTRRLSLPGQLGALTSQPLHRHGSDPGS

Structure (SMILES)	hERG current change (%, negative = inhibition) at 1uM
COCCn1c(=NC(=O)CSC(C)=O)sc2cc(F)ccc21	6.85%
CCC(=O)Nc1ccc(NC(=O)c2cc3ccccc3o2)c(OC)c1	-0.329%
COc1ccc(/C=C/C(=O)C2CC2)cc1Cn1nc(C)c([N+](=O)[O-])c1C	-9.32%
Cc1nnc(SCC(=O)N2CCN(c3ccccc3)CC2)n1-c1ccccc1	4.55%
O=C1C=CN(C(=O)Oc2ccccc2)CC1	3.33%
Cc1ccc(O)c(NC(=O)Cc2ccc3ccccc3c2)c1	11.6%
CC(=O)N1C(=O)NC(c2ccccc2)=C([N+](=O)[O-])C1c1ccccc1 (stereo not shown)	7.06%
CCS(=O)(=O)c1nc(S(=O)(=O)c2ccc(C)cc2)c(N2CCN(CCO)CC2)s1	16.9%
CCOC(=O)c1ccc2nc(NC(NC(C)=O)(C(=O)OC)C(F)(F)F)sc2c1 (stereo not shown)	14%
CC(C)c1ccc(N(C(=O)c2csnn2)C(C(=O)NC2CCCC2)c2ccncc2)cc1 (stereo not shown)	4.61%
O=C(O)c1ccc([N+](=O)[O-])c(CS(=O)(=O)c2ccc(Cl)cc2)c1	4.34%
COc1ccc(C2(C)NC(=O)N(CC(=O)Nc3ccc(S(=O)(=O)N4CCCC4)cc3)C2=O)cc1 (stereo not shown)	0.414%
COc1ccc(NC(=S)N2CCN(C(=O)C3CCCO3)CC2)c(OC)c1 (stereo not shown)	12.9%
COc1ccc(-c2c(C)n([O-])c3c([n+]2=O)CCCC3)c(OC)c1	11.4%
O=C(O)c1ccc(Cl)c(S(=O)(=O)NCC2CCCO2)c1 (stereo not shown)	14.8%
CCCCCn1nc(-c2ccccc2)c2nc3ccccc3nc21	13.8%
O=C1OCCC1Sc1nnc(-c2ccc3c(c2)OCO3)n1-c1ccccc1 (stereo not shown)	4.75%
CCN(C(=O)CCCCC(=O)N(CC)c1ccccc1)c1ccccc1	11.1%
COc1ccc(OCCC(=O)NCC23CC4CC(CC(C4)C2)C3)cc1	7.39%
COc1ccccc1N=C1SCC(=O)N1c1ccccc1OC	4.93%
COc1cc(/C=N/NC(=O)C(=O)/C=C2\NC3(CCCC3)Cc3ccccc32)ccc1O	15.5%
CC(CCc1ccccc1)NC(=O)COC(=O)c1ccc([N+](=O)[O-])cc1 (stereo not shown)	5.37%

Structure (SMILES)	hERG current change (%, negative = inhibition) at 1uM
Nc1nc(CSc2ccc(Cl)cc2)nc(N2CCCCC2)n1	-0.564%
CCC(C)NC(=O)CSc1nc2ccccc2c(=O)n1CCCN1CCCCC1 (stereo not shown)	14%
COCCCNC(=O)Cn1cc(C(=O)c2cccs2)c2ccccc21	7.16%
Cc1ccc(S(=O)(=O)N(C)C)cc1NC(=O)Nc1ccccc1	13.7%
CC(C)Cc1ccc(S(=O)(=O)N2CCN(C(=O)c3ccco3)CC2)cc1	11.4%
O=C(NNc1ccc(Cl)cc1)c1c(F)cccc1Cl	14.5%
CCOC(=O)CSc1nnc(CNc2ccccc2Cl)n1-c1ccccc1	7.23%
CCOC(=O)c1c(NC(=O)/C=C/C(=O)O)sc(C)c1-c1ccc(F)cc1	19.5%
COc1ccc(CCC(=O)N2CCN(S(=O)(=O)c3ccc(OC(F)(F)F)cc3)CC2)cc1	-3.48%
CCNC(=O)NC(=O)C(C)OC(=O)c1ccc(-n2nc(SC)sc2=S)cc1 (stereo not shown)	6.17%
CC(=O)Nc1ccc(NC(=O)c2ccc(CN3CCc4ccccc4C3)cc2)cc1	7.98%
CCOc1ccc(C(=O)NC(=S)Nc2ccc(NC(=O)c3ccco3)c(C)c2)cc1[N+](=O)[O-]	17.5%
O=C1C=C(c2ccc3[nH]ccc3c2)C[C@@H](c2ccc(F)cc2)C1	5.61%
CC(=O)Nc1nnc(S(=O)(=O)N2CCN(c3ccc([N+](=O)[O-])cc3Cl)CC2)s1	-4.58%
O=C(CSc1nnc(-c2cccnc2)n1Cc1ccco1)Nc1nc(-c2ccc(F)cc2)cs1	-33.6%
Cc1nc2ccccc2c(=O)n1NC(=O)c1c(F)cccc1F	-1.93%
Cc1ccc(C(=O)NC2CCS(=O)(=O)C2)cc1S(=O)(=O)N1CCCC1 (stereo not shown)	2.16%
CN1CCN(/C=N/c2sc3c(c2C#N)CCCCC3)CC1	10.1%
Cc1ccc(-n2sc3ccccc3c2=O)cc1S(=O)(=O)N1CCCCC1	14%
COc1ccc(Cl)cc1NC(=O)C12CCC(C)(C(=O)O1)C2(C)C (stereo not shown)	1.15%
Cc1ccc(Nc2ccc([N+](=O)[O-])ccc2=O)cc1	10.8%
